Reference: the supplement of paper PMC4967469

Legend:
Assay in all cases: Viability of human cancer cell lines after 72 h of drug (GDSC screen)
[1] = compound: CC(C)C[C@@H](C=O)NC(=O)[C@H](CC(C)C)NC(=O)[C@H](CC(C)C)NC(=O)OCc1ccccc1 [MG-132]; conditions: top dose 1 µM
Experimental: (§1)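 Human cancer cell lines in 384-well plates, medium with 10% serum, drug for 72 h over a 256-fold dose range (nine 2-fold or five 4-fold steps up to the top dose). Adherent lines were fixed and stained with the nucleic acid dye Syto60, suspension lines read with resazurin; signal relative to control wells, capped at 0 and 100%. One two-parameter sigmoid per drug and line, fitted in a mixed model over all curves with the slope shared within a line.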

[2] = compound: CC(C)[C@H](C(=O)Nc1ccc(C(=O)NO)cc1)c1ccccc1 [AR-42]; conditions: top dose 5.12 µM; top dose inferred
Experimental: as §1

[3] = compound: C[C@]12O[C@H](C[C@]1(O)CO)n1c3ccccc3c3c4c(c5c6ccccc6n2c5c31)CNC4=O [CEP-701]; conditions: top dose 2 µM; top dose inferred
Experimental: as §1

[4] = compound: Cc1ccc(Nc2nccc(N(C)c3ccc4c(C)n(C)nc4c3)n2)cc1S(N)(=O)=O [Pazopanib]; conditions: top dose 8 µM
Experimental: as §1

[5] = compound: Cn1cc(C2=C(c3ccc(Cl)cc3Cl)C(=O)NC2=O)c2ccccc21 [SB 216763]; conditions: top dose 10 µM; top dose inferred
Experimental: as §1

[6] = compound: CS(=O)(=O)N1CCN(Cc2cc3nc(-c4cccc5[nH]ncc45)nc(N4CCOCC4)c3s2)CC1 [GDC0941]; conditions: top dose 4 µM; screen: GDSC drug entry 1527; top dose inferred
Experimental: as §1

“JJN-3 (haematopoietic neoplasm, suspension)” showed an AUC [1] of 0.651, an IC50 [1] of 150 nM and an AUC [2] of 0.377. The IC50 [2] was 157 nM, the AUC [3] was 0.5 and the IC50 [3] was 125 nM. The AUC [4] was 0.991, the IC50 [4] was > 8 µM and the AUC [5] was 0.991. For the same cell line, the IC50 [5] was > 10 µM.

OS-RC-2 (kidney, adherent) gave an AUC [1] of 0.738, an IC50 [1] of 415 nM and an AUC [2] of 0.668. It also gave an IC50 [2] of 1170 nM, an AUC [6] of 0.722 and an IC50 [6] of 1440 nM. It also gave an AUC [3] of 0.647, an IC50 [3] of 384 nM and an AUC [5] of 0.935. For the same cell line, the IC50 [5] was > 10 µM.

With “KASUMI-1 (acute myeloid leukaemia, suspension)” the AUC [1] was 0.967, the IC50 [1] was > 1000 nM and the AUC [6] was 0.386. The IC50 [6] was 121 nM, the AUC [3] was 0.328 and the IC50 [3] was 41.4 nM. For the same cell line, the AUC [5] was 0.967 and the IC50 [5] was > 10 µM.

GCIY (stomach, adherent) was tested, and the AUC [1] was 0.838, the IC50 [1] was 805 nM and the AUC [2] was 0.42. The IC50 [2] was 188 nM, the AUC [3] was 0.886 and the IC50 [3] was > 2000 nM. The AUC [4] was 0.929, the IC50 [4] was > 8 µM and the AUC [5] was 0.979. The IC50 [5] was > 10 µM.

Work on D-247MG (glioma, adherent) yielded an AUC [1] of 0.471, an IC50 [1] of 50.6 nM and an AUC [2] of 0.582. It also gave an IC50 [2] of 582 nM, an AUC [6] of 0.808 and an IC50 [6] of 3070 nM. The AUC [3] was 0.678, the IC50 [3] was 475 nM and the AUC [5] was 0.979. For the same cell line, the IC50 [5] was > 10 µM.

NB69 (neuroblastoma, adherent) showed an AUC [1] of 0.801, an IC50 [1] of 423 nM and an AUC [2] of 0.444. For the same cell line, the IC50 [2] was 229 nM, the AUC [3] was 0.7 and the IC50 [3] was 424 nM. For the same cell line, the AUC [4] was 0.985, the IC50 [4] was > 8 µM and the AUC [5] was 0.922. The IC50 [5] was > 10 µM.

Cell Line NCI-H23 (lung adenocarcinoma, adherent) has an AUC [1] of 0.876, an IC50 [1] of 971 nM and an AUC [2] of 0.622. The IC50 [2] was 691 nM, the AUC [3] was 0.885 and the IC50 [3] was > 2000 nM. The AUC [4] was 0.976, the IC50 [4] was > 8 µM and the AUC [5] was 0.974. For the same cell line, the IC50 [5] was > 10 µM.

With VAL (B-cell lymphoma, suspension) the AUC [1] was 0.771, the IC50 [1] was 386 nM and the AUC [2] was 0.278. The IC50 [2] was 74.7 nM, the AUC [3] was 0.546 and the IC50 [3] was 167 nM. The AUC [4] was 0.882, the IC50 [4] was > 8 µM and the AUC [5] was 0.987. The IC50 [5] was > 10 µM.

“NCI-H510A (small cell lung carcinoma, semi-adherent)” showed an AUC [1] of 0.858, an IC50 [1] of 715 nM and an AUC [2] of 0.262. The IC50 [2] was 71.8 nM, the AUC [3] was 0.811 and the IC50 [3] was 959 nM. The AUC [4] was 0.924, the IC50 [4] was > 8 µM and the AUC [5] was 0.974. The IC50 [5] was > 10 µM.

L-363 (myeloma, suspension) showed an AUC [1] of 0.707, an IC50 [1] of 218 nM and an AUC [2] of 0.449. It also gave an IC50 [2] of 237 nM, an AUC [3] of 0.464 and an IC50 [3] of 101 nM. For the same cell line, the AUC [4] was 0.973, the IC50 [4] was > 8 µM and the AUC [5] was 0.988. For the same cell line, the IC50 [5] was > 10 µM.

NB7 (neuroblastoma, adherent) was tested, and the AUC [1] was 0.974, the IC50 [1] was > 1000 nM and the AUC [2] was 0.189. It also gave an IC50 [2] of 35.8 nM, an AUC [6] of 0.767 and an IC50 [6] of 1550 nM. It also gave an AUC [4] of 0.764 and an IC50 [4] of 3.03 µM.

Work on LC-2-ad (lung adenocarcinoma, adherent) yielded an AUC [1] of 0.872, an IC50 [1] of 991 nM and an AUC [2] of 0.421. The IC50 [2] was 193 nM, the AUC [6] was 0.684 and the IC50 [6] was 831 nM. It also gave an AUC [4] of 0.862 and an IC50 [4] of 7.14 µM.

CL-11 (large intestine, adherent) was tested, and the AUC [1] was 0.92, the IC50 [1] was > 1000 nM and the AUC [2] was 0.892. The IC50 [2] was > 5120 nM, the AUC [3] was 0.834 and the IC50 [3] was 1540 nM. The AUC [4] was 0.983, the IC50 [4] was > 8 µM and the AUC [5] was 0.957. For the same cell line, the IC50 [5] was > 10 µM.

NB14 (neuroblastoma, adherent) was tested, and the AUC [1] was 0.987, the IC50 [1] was > 1000 nM and the AUC [6] was 0.914. For the same cell line, the IC50 [6] was > 4000 nM, the AUC [3] was 0.268 and the IC50 [3] was 28.6 nM. For the same cell line, the AUC [4] was 0.989, the IC50 [4] was > 8 µM and the AUC [5] was 0.911. For the same cell line, the IC50 [5] was > 10 µM.

In the case of “LB647-SCLC (small cell lung carcinoma, semi-adherent)”, the AUC [1] is reported as 0.872, the IC50 [1] is reported as > 1000 nM and the AUC [2] is reported as 0.923. The IC50 [2] was > 5120 nM, the AUC [3] was 0.668 and the IC50 [3] was 391 nM. The AUC [4] was 0.974, the IC50 [4] was > 8 µM and the AUC [5] was 0.985. The IC50 [5] was > 10 µM.

Work on HOP-62 (lung adenocarcinoma, adherent) yielded an AUC [1] of 0.655, an IC50 [1] of 168 nM and an AUC [2] of 0.528. For the same cell line, the IC50 [2] was 381 nM, the AUC [6] was 0.844 and the IC50 [6] was 2860 nM. The AUC [4] was 0.953 and the IC50 [4] was > 8 µM.

D-336MG (glioma, adherent) showed an AUC [1] of 0.778, an IC50 [1] of 526 nM and an AUC [2] of 0.595. For the same cell line, the IC50 [2] was 630 nM, the AUC [6] was 0.665 and the IC50 [6] was 825 nM. It also gave an AUC [3] of 0.533, an IC50 [3] of 158 nM and an AUC [5] of 0.931. For the same cell line, the IC50 [5] was > 10 µM.

Work on OVCAR-4 (ovary, adherent) yielded an AUC [1] of 0.631, an IC50 [1] of 172 nM and an AUC [2] of 0.794. The IC50 [2] was 3800 nM, the AUC [3] was 0.821 and the IC50 [3] was > 2000 nM. The AUC [4] was 0.827, the IC50 [4] was > 8 µM and the AUC [5] was 0.973. The IC50 [5] was > 10 µM.

For SW872 (soft tissue, adherent), the AUC [1] was 0.728, the IC50 [1] was 258 nM and the AUC [2] was 0.56. It also gave an IC50 [2] of 459 nM, an AUC [6] of 0.654 and an IC50 [6] of 637 nM. For the same cell line, the AUC [4] was 0.982 and the IC50 [4] was > 8 µM.

For DEL (lymphoid neoplasm, suspension), the AUC [1] was 0.98, the IC50 [1] was > 1000 nM and the AUC [2] was 0.455. The IC50 [2] was 248 nM, the AUC [6] was 0.937 and the IC50 [6] was > 4000 nM. The AUC [4] was 0.968, the IC50 [4] was > 8 µM and the AUC [5] was 0.976. For the same cell line, the IC50 [5] was > 10 µM.

In the case of EJM (lymphoid neoplasm, semi-adherent), the AUC [1] is reported as 0.77, the IC50 [1] is reported as 322 nM and the AUC [2] is reported as 0.364. For the same cell line, the IC50 [2] was 144 nM, the AUC [3] was 0.612 and the IC50 [3] was 241 nM. For the same cell line, the AUC [4] was 0.988, the IC50 [4] was > 8 µM and the AUC [5] was 0.992. The IC50 [5] was > 10 µM.

With MFM-223 (breast, adherent) the AUC [1] was 0.952, the IC50 [1] was > 1000 nM and the AUC [2] was 0.595. For the same cell line, the IC50 [2] was 582 nM, the AUC [3] was 0.733 and the IC50 [3] was 573 nM. The AUC [4] was 0.934, the IC50 [4] was > 8 µM and the AUC [5] was 0.979. For the same cell line, the IC50 [5] was > 10 µM.

KMS-12-BM (myeloma, suspension) showed an AUC [1] of 0.806, an IC50 [1] of 407 nM and an AUC [2] of 0.275. For the same cell line, the IC50 [2] was 84.1 nM, the AUC [3] was 0.253 and the IC50 [3] was 28.7 nM. For the same cell line, the AUC [4] was 0.982, the IC50 [4] was > 8 µM and the AUC [5] was 0.981. The IC50 [5] was > 10 µM.

With OMC-1 (cervix, adherent) the AUC [1] was 0.954, the IC50 [1] was > 1000 nM and the AUC [2] was 0.645. The IC50 [2] was 822 nM, the AUC [6] was 0.795 and the IC50 [6] was 1950 nM. The AUC [3] was 0.805, the IC50 [3] was 1060 nM and the AUC [4] was 0.985. For the same cell line, the IC50 [4] was > 8 µM.

NB17 (neuroblastoma, adherent) showed an AUC [1] of 0.705, an IC50 [1] of 260 nM and an AUC [2] of 0.835. For the same cell line, the IC50 [2] was 4080 nM, the AUC [3] was 0.695 and the IC50 [3] was 483 nM. The AUC [5] was 0.965 and the IC50 [5] was > 10 µM.

Lines with a small IC50 respond at low doses; a limit (>, <) means that the fit lies beyond the doses tested. For AUC the same curve is integrated over the 256-fold range of doses and scaled to a fraction: 1 means no effect, lower means more sensitive. For some of these results: Any top dose called inferred comes from the curve model; the source does not state it. For some of these results: Drugs with an entry number were screened twice under separate entries, and the two screens often disagree.
